Measured values from paper PMC4336329 (PLoS ONE, 2015).
The whole screen tested about 310,000 compounds, of which about 14,000 (4.5%) showed an effect of 50% or more. The effect is printed as a negative number. The list shows a part of the results.

What follows are compounds tested against human ether-à-go-go-related gene (hERG) potassium channel (human, UniProt Q12809) (assay: primary screen, population patch clamp on CHO cells stably expressing hERG).
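Note: peak tail current of the secondary pulse compared with the same well before compound.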

Chain of human ether-à-go-go-related gene (hERG) potassium channel (Q12809 whole entry, looked up): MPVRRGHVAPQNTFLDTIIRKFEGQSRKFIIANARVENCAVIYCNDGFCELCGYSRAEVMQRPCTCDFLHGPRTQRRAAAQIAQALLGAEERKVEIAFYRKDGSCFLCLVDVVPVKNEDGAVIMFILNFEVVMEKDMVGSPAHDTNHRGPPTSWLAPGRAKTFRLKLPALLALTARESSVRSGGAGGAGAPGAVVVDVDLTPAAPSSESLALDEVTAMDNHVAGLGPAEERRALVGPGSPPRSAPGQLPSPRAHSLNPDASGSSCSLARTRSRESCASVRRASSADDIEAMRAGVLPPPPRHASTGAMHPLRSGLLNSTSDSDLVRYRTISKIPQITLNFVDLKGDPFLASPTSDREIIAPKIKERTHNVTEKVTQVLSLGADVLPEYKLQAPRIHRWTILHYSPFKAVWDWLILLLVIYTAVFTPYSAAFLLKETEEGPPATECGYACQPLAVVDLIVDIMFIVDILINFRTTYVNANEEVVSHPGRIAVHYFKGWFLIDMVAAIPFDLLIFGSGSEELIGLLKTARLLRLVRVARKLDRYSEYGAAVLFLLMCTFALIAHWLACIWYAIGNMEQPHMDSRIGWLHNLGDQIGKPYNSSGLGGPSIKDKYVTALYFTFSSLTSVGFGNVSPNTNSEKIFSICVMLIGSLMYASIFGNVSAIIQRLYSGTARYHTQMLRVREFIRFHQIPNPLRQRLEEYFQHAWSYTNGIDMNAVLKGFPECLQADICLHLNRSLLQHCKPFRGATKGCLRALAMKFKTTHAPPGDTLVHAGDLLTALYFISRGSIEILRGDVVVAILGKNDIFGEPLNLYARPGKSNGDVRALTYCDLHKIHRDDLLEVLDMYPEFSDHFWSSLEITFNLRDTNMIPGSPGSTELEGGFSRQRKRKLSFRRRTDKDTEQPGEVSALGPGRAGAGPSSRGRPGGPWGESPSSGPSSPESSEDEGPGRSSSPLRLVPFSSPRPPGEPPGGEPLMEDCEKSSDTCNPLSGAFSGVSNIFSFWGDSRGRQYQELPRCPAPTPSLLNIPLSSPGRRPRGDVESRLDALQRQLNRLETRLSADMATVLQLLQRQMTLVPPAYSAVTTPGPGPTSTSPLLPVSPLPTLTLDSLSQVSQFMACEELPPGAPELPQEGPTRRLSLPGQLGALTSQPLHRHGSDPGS

Compared with `Cc1cc(C)n(Cc2ccccc2)c(=O)c1S(=O)(=O)c1ccccc1`, `CCn1c(=O)c2ccccc2n(Cc2cccc(C)c2)c1=O` is higher in “hERG current change (%, negative = inhibition) at 10uM” value: 2.93% for the first, 3.93% for the second.

Compared with `O=C(COC(=O)c1ccc(Cl)nc1)Nc1ncc(Cl)cc1Cl`, `Cc1ccc(C)c(OCCC(=O)OCC(=O)Nc2cccnc2Cl)c1` is higher in “hERG current change (%, negative = inhibition) at 10uM” value: 6.21% for the first, 9.83% for the second.

Compared with `CC(=O)N1CCN(C(=O)c2ccc(-n3c(C)ccc3C)cc2)CC1`, `CC(=O)N1CCN(C(=O)c2ccc(-c3cccc(C(F)(F)F)c3)o2)CC1` is lower in “hERG current change (%, negative = inhibition) at 10uM” value: -1.54% for the first, -53.5% for the second.

First: CC1CCN(S(=O)(=O)c2ccc(F)c(C(=O)O)c2)CC1
Second: CC(=O)N1c2ccc(S(=O)(=O)NCCC(=O)N3CCCC(C)C3)cc2CC1C (stereo not drawn)
The “hERG current change (%, negative = inhibition) at 10uM” value of the first is lower: 4.7% for the first, 10.4% for the second.

Compared with `O=C(CSc1nnc(Nc2ccccc2)s1)NN1C(=O)NC2(CCCCC2)C1=O`, `Cc1n[nH]c(=O)c2c(NC(=O)CSc3nn(-c4ccccc4)c(=S)s3)oc(C)c12` is higher in “hERG current change (%, negative = inhibition) at 10uM” value: -1.61% for the first, -1.58% for the second.

Compared with `CC1CN(c2ccc([N+](=O)[O-])c(NCCOc3ccc(Cl)cc3)c2)CC(C)N1` (stereo not drawn), `CCC(C)NCCCOc1ccc([N+](=O)[O-])cc1.O=C(O)C(=O)O` (stereo not drawn) is lower in “hERG current change (%, negative = inhibition) at 10uM” value: -47.9% for the first, -74.7% for the second.

First: Cc1cccc(/C=N/NC(=O)Cc2cccs2)c1
Second: O=C1Nc2ccccc2/C1=C/C(=O)c1cccs1
The “hERG current change (%, negative = inhibition) at 10uM” value of the first is higher: 2.55% for the first, 1.73% for the second.

Going from `O=C(CSc1ncn[nH]1)NNC(=O)c1ccccc1` to `Cc1cc(NC(=O)c2cccc(Oc3ccccc3)c2)n[nH]1`, the “hERG current change (%, negative = inhibition) at 10uM” value rises from -8.54% to 1.16%.

First: Cl.O=C(CCCN1CCOC(c2ccccc2)C1)c1ccc(F)cc1 (stereo not drawn)
Second: O=C(NCCS(=O)(=O)N1CCN(c2ccc(F)cc2)CC1)C1CC(=O)N(c2ccccc2)C1 (stereo not drawn)
The “hERG current change (%, negative = inhibition) at 10uM” value of the first is lower: -60.7% for the first, -1.74% for the second.

First: C[C@H](NC(=O)c1[nH]cnc1C(=O)Nc1cccc(Cl)c1)c1ccccc1
Second: O=C(NC(CC(=O)N1CCCC(C(F)(F)F)C1)c1ccccc1)c1ccccc1Cl (stereo not drawn)
The “hERG current change (%, negative = inhibition) at 10uM” value of the first is higher: 16.3% for the first, -8.81% for the second.

First: O=C(C1CCN(S(=O)(=O)c2cccs2)CC1)N1CCCCCC1
Second: CC(OC(=O)c1ccc(NS(=O)(=O)c2cccs2)cc1)C(=O)N(C)C1CCCCC1 (stereo not drawn)
The “hERG current change (%, negative = inhibition) at 10uM” value of the first is lower: -5.92% for the first, -0.558% for the second.

Compared with `COc1ccccc1N1CCN(C(=O)CSc2nc3ccccc3[nH]2)CC1`, `O=C(CSc1c2c(nc3ccccc13)CCC2)N1CCCC1` is higher in “hERG current change (%, negative = inhibition) at 10uM” value: -7.19% for the first, 4.57% for the second.

First: COC(=O)c1ccc(NC(=S)NC(=O)c2cc(-c3ccccc3)nc3ccccc23)cc1
Second: O=C(/C=C(\O)c1ccc(Cl)cc1)C(=O)NNC(=O)C(O)(c1ccccc1)c1ccccc1
The “hERG current change (%, negative = inhibition) at 10uM” value of the first is higher: 10.8% for the first, -2.73% for the second.

Going from `CC(CCCC(C)(C)O)NCCO` (stereo not drawn) to `CCOC(=O)CNC(=O)CCCCCC(=O)NCC(=O)OCC`, the “hERG current change (%, negative = inhibition) at 10uM” value falls from 12.1% to 7.47%.

First: CCCOc1ccc(CNC(=O)CCC(=O)n2ncc3cc(C)ccc32)cc1
Second: COc1cccc(CNC(=O)Cc2ccc(NC(=O)C3=C(C)OCCS3)cc2)c1
The “hERG current change (%, negative = inhibition) at 10uM” value of the first is higher: 9.25% for the first, 3.87% for the second.

First: Cc1cccc(NC(=O)c2cccc(S(=O)(=O)N3CCc4ccccc4C3)c2)n1
Second: CC1Cc2ccccc2N1Cc1cccc(S(=O)(=O)N(C)C)c1 (stereo not drawn)
The “hERG current change (%, negative = inhibition) at 10uM” value of the first is lower: -15.1% for the first, 8.8% for the second.

Compared with `C=CCn1c(CCNC(=O)c2cccs2)nnc1SCC(=O)c1cccc([N+](=O)[O-])c1`, `COc1ccccc1CNC(=O)CN(c1cccc([N+](=O)[O-])c1)S(C)(=O)=O` is higher in “hERG current change (%, negative = inhibition) at 10uM” value: -33.6% for the first, -4.16% for the second.

Compared with `CN(C)CCn1c2c(c(SCC(=O)N3CCc4ccccc43)nc1=O)CCCC2`, `CC1=Nc2ccccc2/C1=C/c1sc(=O)n(CC(=O)N2CCCC2)c1O` is higher in “hERG current change (%, negative = inhibition) at 10uM” value: -44.7% for the first, 13.9% for the second.

First: CCOc1ccc(CN(C)c2ccc(S(=O)(=O)N3CCN(C)CC3)cc2[N+](=O)[O-])cc1OC
Second: COc1ccc(C2(CNC(=O)c3ccc(OC)c([N+](=O)[O-])c3)CCOCC2)cc1OC
The “hERG current change (%, negative = inhibition) at 10uM” value of the first is lower: -18.8% for the first, -9.42% for the second.

Going from `CCC(=Nc1cc(OC)ccc1OC)c1c(O)[nH]c(=O)[nH]c1=O` to `COc1ccc(N(C)C(=O)c2cc3c(s2)-c2ccc(Cl)cc2S(=O)(=O)C3)c(OC)c1`, the “hERG current change (%, negative = inhibition) at 10uM” value falls from 4.56% to -58.5%.

First: COCCNC(=O)/C(C#N)=C/c1ccc(N2CCOCC2)o1
Second: COc1ccc(N2CC(C(=O)Nc3ccc(S(=O)(=O)N4CCOCC4)cc3)CC2=O)cc1 (stereo not drawn)
The “hERG current change (%, negative = inhibition) at 10uM” value of the first is lower: 9.87% for the first, 13.4% for the second.

Compared with `CCCN(CCC)CCCNC(=O)CCNS(=O)(=O)c1ccc(Br)cc1`, `CCCCN(CCCNC(=O)Cn1nc(CC)n2c(cc3sc(C)cc32)c1=O)Cc1ccccc1` is lower in “hERG current change (%, negative = inhibition) at 10uM” value: -21.1% for the first, -47.1% for the second.

First: CC(=O)NC(Cc1ccccc1F)C(=O)NC1CCN(C(=O)c2cnccn2)CC1 (stereo not drawn)
Second: CCOC(=O)N1CCN(C(=O)c2cc(COc3c(F)cccc3F)on2)CC1
The “hERG current change (%, negative = inhibition) at 10uM” value of the first is higher: 10.6% for the first, -6.31% for the second.

Going from `NC(=O)c1ccsc1NC(=O)COC(=O)Cc1c[nH]c2ccccc12` to `COC(=O)c1c(Cc2ccccc2Cl)c[nH]c1C`, the “hERG current change (%, negative = inhibition) at 10uM” value rises from -1.19% to 14.2%.

Going from `O=Cc1cn(Cc2ccc([N+](=O)[O-])cc2)c2ccccc12` to `O=c1[nH]c(/C=C/c2ccccc2[N+](=O)[O-])nc2ccccc12`, the “hERG current change (%, negative = inhibition) at 10uM” value rises from -38.9% to 7.84%.

Going from `O=c1[nH]c(CSc2nnc(-c3ccccc3)n2-c2ccccc2)nc2ccccc12` to `O=C(O)CSC1c2ccccc2C(=O)N1c1ccccc1` (stereo not drawn), the “hERG current change (%, negative = inhibition) at 10uM” value falls from 18.1% to 12.2%.

Going from `Cc1ccc(NC(=O)N2CCCC2C(=O)NCc2ccc3c(c2)OCO3)cc1` (stereo not drawn) to `COc1ccc(N2C(=O)CC(N3CCN(Cc4ccc5c(c4)OCO5)CC3)C2=O)cc1` (stereo not drawn), the “hERG current change (%, negative = inhibition) at 10uM” value rises from -2.33% to 25.1%.

Going from `CC(Sc1nnnn1C)C(=O)Nc1ccc2c(c1)OCCO2` (stereo not drawn) to `Cc1cc(-c2nnnn2-c2ccc(F)cc2)no1`, the “hERG current change (%, negative = inhibition) at 10uM” value falls from 21.5% to 18.7%.

Going from `CCC1(C)Cc2ccccc2C(=S)N1` (stereo not drawn) to `COc1ccc(N=C2C(=O)Nc3c(C)cccc32)cc1`, the “hERG current change (%, negative = inhibition) at 10uM” value falls from 10.1% to -3.27%.

First: CCOC(=O)c1sc(NC(=O)c2ccc(OC(C)=O)cc2)nc1C
Second: Cc1ccc(C(=O)Nc2ccc(O)cc2C(=O)O)cc1
The “hERG current change (%, negative = inhibition) at 10uM” value of the first is lower: 13.3% for the first, 19.1% for the second.

Going from `CCN1CCC(N(C)C2CCCCC2)CC1` to `CC1CCC(NC(=O)COC(=O)C2CC3CCCC(C2)C3=O)CC1` (stereo not drawn), the “hERG current change (%, negative = inhibition) at 10uM” value rises from -2.12% to -0.0582%.

Going from `Cc1cc(-c2nnc(CCC(=O)N3CCN(Cc4cccc(F)c4)CC3)o2)c(C)o1` to `COc1ccc(OC)c(Cc2nnc(CCC(=O)NCc3nc4ccccc4s3)o2)c1`, the “hERG current change (%, negative = inhibition) at 10uM” value rises from -36.2% to -9.48%.

Compared with `Cc1c(NC(=S)N/N=C\c2ccccc2O)c(=O)n(-c2ccccc2)n1C`, `COc1ccccc1NC(=O)Nc1nn(C)c2cccc(N(C)C)c12` is higher in “hERG current change (%, negative = inhibition) at 10uM” value: -6.26% for the first, 11% for the second.

Going from `CC(=O)N1c2ccc(S(=O)(=O)N(C)c3cc(C)ccc3C)cc2CC1C` (stereo not drawn) to `CC(C)(C)NC(=O)Cn1nnc(-c2ccc(S(C)(=O)=O)cc2)n1`, the “hERG current change (%, negative = inhibition) at 10uM” value rises from -8.67% to -1.52%.

First: Cc1cc(Cn2ccnc2)c(C)cc1Cn1ccnc1
Second: CCN(c1ccccc1)c1nc(C#N)nc(N(CC)c2ccccc2)n1
The “hERG current change (%, negative = inhibition) at 10uM” value of the first is lower: -0.954% for the first, 3.56% for the second.

Compared with `CC(C)(C)C(=O)NC1=NCCS1`, `Cc1onc(-c2c(F)cccc2Cl)c1C(=O)NC1CCSC1=O` (stereo not drawn) is lower in “hERG current change (%, negative = inhibition) at 10uM” value: 15.7% for the first, 0.262% for the second.

Going from `CCCNC(=O)C1CCC(CNS(=O)(=O)c2cccc3nsnc23)CC1` (stereo not drawn) to `COc1cccc(CN(C)CC(=O)NC(=O)NCc2ccco2)c1`, the “hERG current change (%, negative = inhibition) at 10uM” value rises from 4.95% to 6.08%.

Going from `c1ccc2c(-c3[nH]ncc3CNCCCn3ncc4ccccc43)cccc2c1` to `CCCCn1nc(C(=O)N(CC)CC(=O)Nc2c(F)cccc2F)c2ccccc2c1=O`, the “hERG current change (%, negative = inhibition) at 10uM” value rises from -34.4% to -7.72%.

Compared with `Cc1ccc(C2(C(=O)N3CCC(n4nc(-c5ccccc5)oc4=O)CC3)CC2)cc1`, `Cc1cccc(-c2oc3ccc(-c4ccc5c(c4)OCO5)cc3c2C(=O)OCc2ccc(O)cc2)c1` is higher in “hERG current change (%, negative = inhibition) at 10uM” value: -17% for the first, 6.27% for the second.

First: CC#CCCCC(=O)Nc1cccc(C(=O)O)c1
Second: O=C(O)c1cccc(Oc2cccc(Cl)n2)c1
The “hERG current change (%, negative = inhibition) at 10uM” value of the first is lower: 0.392% for the first, 19.1% for the second.

First: Cc1ccc(N=Cc2cc3c(cc2[N+](=O)[O-])OCO3)cc1[N+](=O)[O-]
Second: CCOc1ccc(C(=O)NCC(=O)NNC(=O)C2COc3ccccc3O2)cc1OCC (stereo not drawn)
The “hERG current change (%, negative = inhibition) at 10uM” value of the first is higher: 17.4% for the first, 8.51% for the second.

Going from `Cc1ccc(NC(/C=C/N(C)C)=C/C(=O)C(F)(F)F)c(C)c1` to `C[C@@H]1CN(C(=O)c2cc(COc3cccc(C(F)(F)F)c3)on2)C[C@H](C)O1`, the “hERG current change (%, negative = inhibition) at 10uM” value rises from -56.7% to 8.11%.

Going from `COc1ccc(NCc2nnc(SCC(=O)Nc3cc(C(F)(F)F)ccc3Cl)o2)cc1` to `O=C(NCc1ccco1)C1CC(c2c(Cl)cccc2Cl)=NO1` (stereo not drawn), the “hERG current change (%, negative = inhibition) at 10uM” value falls from 15% to 14.4%.

For `CN(C)c1nc(SCC#N)nc(N(C)C)n1`, the “hERG current change (%, negative = inhibition) at 10uM” value was -3.57%.
